In the supplement of paper PMC4967469:

Compound: Cn1cc(C2=C(c3cn(C4CCN(Cc5ccccn5)CC4)c4ccccc34)C(=O)NC2=O)c2ccccc21 [LY317615]
Assay: Viability of human cancer cell lines after 72 h of drug (GDSC screen)
Conditions: top dose inferred
Description: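 Human cancer cell lines in 384-well plates, medium with 10% serum, drug for 72 h over a 256-fold dose range (nine 2-fold or five 4-fold steps up to the top dose). Adherent lines were fixed and stained with the nucleic acid dye Syto60, suspension lines read with resazurin; signal relative to control wells, capped at 0 and 100%. One two-parameter sigmoid per drug and line, fitted in a mixed model over all curves with the slope shared within a line.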

COLO-792 (melanoma, adherent, top dose 20 µM)
AUC: 0.882 | IC50: > 20 µM

COLO-800 (melanoma, adherent, top dose 20 µM)
AUC: 0.962 | IC50: > 20 µM

COLO-824 (breast, adherent, top dose 20 µM)
AUC: 0.941 | IC50: > 20 µM

COLO-829 (melanoma, adherent, top dose 20 µM)
AUC: 0.776 | IC50: 12.2 µM

COR-L23 (large cell lung carcinoma, adherent, top dose 20 µM)
AUC: 0.96 | IC50: > 20 µM

COR-L88 (small cell lung carcinoma, adherent, top dose 20 µM)
AUC: 0.904 | IC50: > 20 µM

COR-L95 (small cell lung carcinoma, adherent, top dose 20 µM)
AUC: 0.9 | IC50: > 20 µM

COR-L105 (lung adenocarcinoma, adherent, top dose 20 µM)
AUC: 0.86 | IC50: > 20 µM

COR-L279 (small cell lung carcinoma, suspension, top dose 20 µM)
AUC: 0.988 | IC50: > 20 µM

COR-L303 (small cell lung carcinoma, suspension, top dose 20 µM)
AUC: 0.8 | IC50: 9.27 µM

COR-L311 (small cell lung carcinoma, suspension, top dose 20 µM)
AUC: 0.782 | IC50: 8.98 µM

COR-L321 (lung, suspension, top dose 20 µM)
AUC: 0.85 | IC50: 15.1 µM

CP50-MEL-B (melanoma, adherent, top dose 20 µM)
AUC: 0.962 | IC50: > 20 µM

CP66-MEL (melanoma, adherent, top dose 20 µM)
AUC: 0.927 | IC50: > 20 µM

CPC-N (small cell lung carcinoma, suspension, top dose 20 µM)
AUC: 0.973 | IC50: > 20 µM

CS1 (bone, adherent, top dose 20 µM)
AUC: 0.838 | IC50: 15.8 µM

CTB-1 (B-cell lymphoma, suspension, top dose 20 µM)
AUC: 0.784 | IC50: 11.9 µM

CTV-1 (acute myeloid leukaemia, suspension, top dose 20 µM)
AUC: 0.381 | IC50: 0.632 µM

CW-2 (large intestine, adherent, top dose 20 µM)
AUC: 0.876 | IC50: > 20 µM

Ca9-22 (head and neck, adherent, top dose 20 µM)
AUC: 0.971 | IC50: > 20 µM

Ca-Ski (cervix, adherent, top dose 20 µM)
AUC: 0.515 | IC50: 1.38 µM

CaR-1 (large intestine, adherent, top dose 20 µM)
AUC: 0.95 | IC50: > 20 µM

Calu-3 (lung adenocarcinoma, adherent, top dose 20 µM)
AUC: 0.979 | IC50: > 20 µM

Calu-6 (lung adenocarcinoma, adherent, top dose 20 µM)
AUC: 0.853 | IC50: 19.4 µM

Caov-3 (ovary, adherent, top dose 20 µM)
AUC: 0.937 | IC50: > 20 µM

Caov-4 (ovary, adherent, top dose 20 µM)
AUC: 0.612 | IC50: 2.93 µM

Capan-2 (pancreas, adherent, top dose 20 µM)
AUC: 0.849 | IC50: > 20 µM

ChaGo-K-1 (non-small cell lung carcinoma, adherent, top dose 20 µM)
AUC: 0.789 | IC50: 10.5 µM

D-247MG (glioma, adherent, top dose 20 µM)
AUC: 0.965 | IC50: > 20 µM

D-263MG (glioma, adherent, top dose 20 µM)
AUC: 0.972 | IC50: > 20 µM

D-283MED (medulloblastoma, adherent, top dose 20 µM)
AUC: 0.987 | IC50: > 20 µM

D-336MG (glioma, adherent, top dose 20 µM)
AUC: 0.832 | IC50: 18.1 µM

D-392MG (glioma, adherent, top dose 20 µM)
AUC: 0.893 | IC50: > 20 µM

The IC50 comes from the fitted curve, where viability falls to half of the control; where the fit passes the top or lowest dose, that dose stands as a limit. AUC sums up the same curve from the lowest dose to the 256-fold higher top dose; values near 1 show little effect. A top dose marked as inferred is not printed in the source and was worked back from the curve model.
